# B1: Ab2-VIG2 (bispecific antibody)
# heavy: QVQLVQSGAEVKKPGASVKVSCKASGYIFTAYTMHWVRQAPGQGLDWMGGIKPNNGLANYAQKFQGRVTMTVDKSISTAYMELSRLRSDDTAVYYCARSEITTEFDYWGQGTLVTVSSASTKGPSVFPLAPSSKSTSGGTAALGCLVKDYFPEPVTVSWNSGALTSGVHTFPAVLQSSGLYSLSSVVTVPSSSLGTQTYICNVNHKPSNTKVDKKVEPKSCDCH[human IgG1 Fc omitted here]GGGGSGGGGSSDTGRPFVEMYSEIPEIIHMTEGRELVIPCRVTSPNITVTLKKFPLDTLIPDGKRIIWDSRKGFIISNATYKEIGLLTCEATVNGHLYKTNYLTHRQTNTI
# light: DIVLTQSPDSLAVSLGERATINCRSSESVDSYANSFMHWYQQKPGQPPKLLIYRASTRESGVPDRFSGSGSRTDFTLTISSLQAEDVAVYYCQQSKEDPLTFGGGTKVEIKRTVAAPSVFIFPPSDEQLKSGTASVVCLLNNFYPREAKVQWKVDNALQSGNSQESVTEQDSKDSTYSLSSTLTLSKADYEKHKVYACEVTHQGLSSPVTKSFNRGEC
# Molecular target: c-Met on cells (MKN45, Caki-1, NCI-H441, HUVEC) (human, UniProt P08581)
# Assay: cell-based or functional assay
# Chain of UniProt P08581 (P08581 25-1390): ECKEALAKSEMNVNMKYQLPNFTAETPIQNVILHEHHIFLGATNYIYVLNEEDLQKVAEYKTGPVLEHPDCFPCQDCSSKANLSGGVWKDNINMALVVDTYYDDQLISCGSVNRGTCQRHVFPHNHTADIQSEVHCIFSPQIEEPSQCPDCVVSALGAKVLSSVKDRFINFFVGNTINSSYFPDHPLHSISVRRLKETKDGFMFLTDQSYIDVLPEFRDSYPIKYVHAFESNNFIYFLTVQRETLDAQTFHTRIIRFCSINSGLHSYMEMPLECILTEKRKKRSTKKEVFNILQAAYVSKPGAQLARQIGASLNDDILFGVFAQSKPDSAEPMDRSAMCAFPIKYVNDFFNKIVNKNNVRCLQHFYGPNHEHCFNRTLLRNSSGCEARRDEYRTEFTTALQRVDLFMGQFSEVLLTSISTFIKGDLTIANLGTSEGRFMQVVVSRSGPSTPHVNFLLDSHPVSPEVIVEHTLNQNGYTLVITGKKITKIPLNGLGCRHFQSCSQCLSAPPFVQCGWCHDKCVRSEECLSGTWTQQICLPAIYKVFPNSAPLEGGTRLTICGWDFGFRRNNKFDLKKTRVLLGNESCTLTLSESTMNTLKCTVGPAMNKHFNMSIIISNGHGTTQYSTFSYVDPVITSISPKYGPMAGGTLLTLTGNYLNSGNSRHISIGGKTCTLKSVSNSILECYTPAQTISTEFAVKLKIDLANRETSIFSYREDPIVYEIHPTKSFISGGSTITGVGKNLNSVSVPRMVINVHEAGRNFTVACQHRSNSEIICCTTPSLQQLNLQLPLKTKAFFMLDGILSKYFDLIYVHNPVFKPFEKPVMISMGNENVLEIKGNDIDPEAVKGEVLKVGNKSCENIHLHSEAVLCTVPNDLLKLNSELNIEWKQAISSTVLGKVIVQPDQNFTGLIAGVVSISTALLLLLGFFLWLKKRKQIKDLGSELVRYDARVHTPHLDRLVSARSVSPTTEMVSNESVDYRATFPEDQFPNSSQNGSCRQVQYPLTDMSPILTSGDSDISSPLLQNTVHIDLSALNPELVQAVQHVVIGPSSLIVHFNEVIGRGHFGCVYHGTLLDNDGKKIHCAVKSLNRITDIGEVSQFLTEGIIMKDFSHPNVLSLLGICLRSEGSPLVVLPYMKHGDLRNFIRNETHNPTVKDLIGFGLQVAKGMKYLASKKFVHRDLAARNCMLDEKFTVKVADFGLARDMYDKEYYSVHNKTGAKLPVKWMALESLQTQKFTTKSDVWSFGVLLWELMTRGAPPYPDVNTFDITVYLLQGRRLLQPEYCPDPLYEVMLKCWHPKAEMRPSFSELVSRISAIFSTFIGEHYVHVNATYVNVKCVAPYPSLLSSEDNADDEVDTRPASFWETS
binder,measurement,value
B1,"c-Met degradation ability (total c-Met ELISA, method of Example 2.2)",81.9%
